According to the antibiotic and cytotoxicity screens of Wong et al. (2023):
The list shows a part of the results.

Assays:
[1] = test system: HSkMC (human skeletal muscle cells); test: cytotoxicity call (relative viability < 0.9); details: 10 µM
[2] = test system: HepG2; test: cytotoxicity call (relative viability < 0.9); details: 10 µM
[3] = test system: S. aureus RN4220; test: growth inhibition call (relative growth <= 0.2); details: 50 µM

Cc1ccc(S(=O)(=O)N(C)C[C@@H]2Oc3ncc(C#CCN(C)C)cc3C(=O)N([C@H](C)CO)C[C@@H]2C)cc1
inactive: cytotoxicity call [1] | cytotoxicity call [2] | growth inhibition call [3]

C[C@@H]1CN([C@H](C)CO)C(=O)c2cc(NC(=O)Nc3ccc(F)cc3)ccc2O[C@@H](C)CCCCO[C@H]1CN(C)S(=O)(=O)c1cccs1
inactive: cytotoxicity call [1] | cytotoxicity call [2] | growth inhibition call [3]

C[C@H]1CN([C@@H](C)CO)C(=O)Cc2cc(NC(=O)NC3CCCCC3)ccc2O[C@H]1CN(C)C(=O)Nc1ccc(C(F)(F)F)cc1
inactive: cytotoxicity call [1] | cytotoxicity call [2] | growth inhibition call [3]

Cc1ccc(S(=O)(=O)N(C)C[C@H]2Oc3ccc(NC(=O)c4ccncc4)cc3CC(=O)N([C@@H](C)CO)C[C@H]2C)cc1
inactive: cytotoxicity call [1] | cytotoxicity call [2] | growth inhibition call [3]

C[C@H]1CN([C@@H](C)CO)C(=O)CCCn2cc(nn2)CO[C@@H]1CN(C)S(=O)(=O)c1ccc2c(c1)OCCCO2
inactive: cytotoxicity call [1] | cytotoxicity call [2] | growth inhibition call [3]

C[C@@H]1CN([C@H](C)CO)C(=O)Cc2cc(NS(=O)(=O)c3cn(C)cn3)ccc2O[C@@H]1CN(C)Cc1ccc2c(c1)OCO2
inactive: cytotoxicity call [1] | cytotoxicity call [2] | growth inhibition call [3]

CC(C)c1nc2cc3sc(C(C)C)nc3cc2s1
inactive: cytotoxicity call [1] | cytotoxicity call [2] | growth inhibition call [3]

O=C(CCCCCCC(=O)Nc1ccc([C@@H]2O[C@H](CSc3nc(-c4ccccc4)c(-c4ccccc4)o3)C[C@H](c3ccccc3)O2)cc1)NO
inactive: cytotoxicity call [1] | cytotoxicity call [2] | growth inhibition call [3]

Cc1noc(C)c1NC(=O)N(C)C[C@H]1Oc2c(NC(=O)NC(C)C)cccc2C(=O)N([C@H](C)CO)C[C@H]1C
inactive: cytotoxicity call [1] | cytotoxicity call [2] | growth inhibition call [3]
